The values that follow come from PubChem BioAssay AID1508623 (National Center for Advancing Translational Sciences (NCATS), 2021).

Out of some 48,000 compounds screened, about 450 (0.94%) were called active. Another 19% or so got no clear call; they are omitted. Calls come from the whole dose curve; as a rule, active = well fitted inhibition curve with a large enough effect; inconclusive = small, poorly fitted or top-dose-only effect; inactive = no such curve, though single readings can be large or run the other way. Some of the results follow.

A short description of the experiment: Primary qHTS for Identification of Small Molecule Inhibitors of Huntingtin Promoter Activity. Note: nearly all actives have a fitted effect of over 50% in size. To be noted: HEK293 HTT promoter firefly luciferase reporter (activity 0% = vehicle and -100% = no light), 24 h; series mostly up to 57.5 µM; activity change, negative = inhibition: at the top concentration. Summed up: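 Luminescence was read after Dual-Glo reagent and a 10 min room-temperature incubation. Values were normalized to vehicle (0% activity) and zero RLU (-100% activity). Reporter HEK293 cells had been exposed to compounds (up to 57.5 uM final) for 24 h.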
`COc1ccccc1-n1c(=O)c2c3c(sc2n(Cc2ccccc2F)c1=O)CN(C(C)=O)CC3`: the “activity change, negative = inhibition” value was inactive: 0.478%.
The figure for `O=C(NCCS(=O)(=O)N1CCN(c2ccc(F)cc2)CC1)C1CC(=O)N(c2ccccc2)C1` (stereo not given) is inactive: -5.64%.
On to `CC(C)c1cc(-c2nc(-c3ccc(Br)cc3)no2)n[nH]1`, for which the “activity change, negative = inhibition” value is inactive: 26%.
The figure for `CCCN1CCN(CCNC(=O)Nc2ccccc2OCC)CC1` is inactive: -4.96%; for `Cc1cc2c(n1-c1ccc(C(=O)NCCc3ccccc3)cc1)CCC(C)C2` (stereo not given) it is inactive: 29.6%.
With `CCCN(Cc1cccs1)C(=O)Nc1ccc(Br)cc1F`, the “activity change, negative = inhibition” value was inactive: 11.8%.
The figure for `COc1ccc2[nH]c(=O)c(CN(C(=O)c3cccc(Cl)c3)c3cccc(C)c3)cc2c1` is inactive: -9.16%; for `C[C@H]1C[C@H]2[C@@H]3CCC4=CC(=O)C=C[C@]4(C)[C@@H]3C(=O)C[C@]2(C)[C@@]1(O)C(=O)CO` it is inactive: -23.2%; for `CCN1CCN(c2ncc3c(n2)CCN(Cc2ccc(OC)c(OC)c2)C3)CC1` it is inactive: -9.02%.
The figure for `CCN1C(=O)c2ccccc2S(=O)c2ccc(C(=O)N3CCN(c4ccccc4OC)CC3)cc21` (stereo not given) is inactive: -35.4%.
For `COc1cccc(CNC(=O)CCCCCn2c(=O)[nH]c3cc(OC)c(OC)cc3c2=O)c1`, the “activity change, negative = inhibition” value is inactive: -9.1%.
The result for `CCOC(=O)c1c(C)[nH]c(C)c1S(=O)(=O)NCC(=O)NCc1ccccc1Cl` reads inactive: -9.43%; that for `COc1cc(C(CC(=O)Nc2cc(C)ccn2)N2Cc3ccccc3C2=O)cc(OC)c1OC` (stereo not given), inactive: -11.2%.
The result for `Cc1cc2c(n1-c1ccc(C(=O)NCc3ccc(OC(C)C)cc3)cc1)CCCC2` reads inactive: -2.01%.
The figure for `COc1cc(-c2oc3ccc(C)cc3c(=O)c2O)cc(OC)c1OC` is inactive: -25.5%; for `COc1ccc2c(c1)c1c(c(=O)n(-c3cccc(C)c3)c(=O)n1CC(=O)NCC1CCCO1)n2C` (stereo not given) it is inactive: -7.1%.
Take `COc1ccccc1CNC(=O)CCCn1c(=O)c2ccccc2n(Cc2ccccc2C#N)c1=O`: the “activity change, negative = inhibition” value is inactive: -9.61%.
The result for `CCOc1ccccc1C(=O)Nc1ccc(S(=O)(=O)Nc2ncccn2)cc1` reads inactive: -9.29%.
For `Cc1cccc(Cc2c(C)nc3nc(SCc4ccccc4F)nn3c2C)c1`, the “activity change, negative = inhibition” value is inactive: -10.3%.
The figure for `CC(C)=CCC/C(C)=C/CC/C(C)=C/C(=O)OCC(=O)[C@@]1(O)CC[C@H]2[C@@H]3CCC4=CC(=O)C=C[C@]4(C)[C@H]3[C@@H](O)C[C@@]21C` is inactive: 9.08%; for `COc1ccc(OC)c(NC(=O)Cn2c(=O)n(Cc3nc(C)no3)c(=O)c3ccccc32)c1` it is inactive: -8.87%.
The result for `COc1ccc(Cl)cc1NC(=O)NCCc1c(C)nn(C)c1C` reads inactive: -12.6%; that for `CC(=O)Nc1ccc(NC(=O)c2cc(-c3cccs3)on2)cc1`, inactive: 10.4%.
The figure for `O=C(CSC1=Nc2ccccc2N=C(c2ccc(F)cc2)C1)Nc1ccc(Cl)cc1` is inactive: -1.99%; for `Cc1ccc(Sc2c(C)nn(C(=O)c3ccc(Br)cc3)c2C)cc1` it is inactive: -20.2%.
Regarding `COc1ccc(Nc2ncnc3onc(C)c23)c(OC)c1`, the “activity change, negative = inhibition” value was inactive: -9.07%.
For `CC(C)(C)c1nnc(NS(=O)(=O)c2ccc(N)cc2)s1`, the “activity change, negative = inhibition” value is inactive: -2.1%.
In the case of `COc1ccc(N2CCN(C(=O)C(C)n3c(=O)cc(C(F)(F)F)c4c(C)nn(C)c43)CC2)cc1` (stereo not given), the “activity change, negative = inhibition” value is inactive: -5.77%.
The result for `Cn1cnc(S(=O)(=O)N2CCCC(C(=O)NCc3ccccc3)C2)c1` (stereo not given) reads inactive: -13.2%; that for `Cc1cccc(N2CCN(C(=O)Cn3ncc4c([nH]c5ccccc54)c3=O)CC2C)c1` (stereo not given), inactive: 8%.
The figure for `CCOc1ccc(NC(=O)c2cc(C)nc3c2c(C)nn3-c2cccc(F)c2)cc1` is inactive: -9.67%.
As for `CC1(C(=O)NC2CCCCC2)Cc2ccccc2C(=O)N1Cc1ccc(F)cc1` (stereo not given), the “activity change, negative = inhibition” value is inactive: -27.7%.
The result for `Cc1c(OCC(F)(F)F)ccnc1CS(=O)c1nc2ccccc2[nH]1` (stereo not given) reads “inactive”.
The figure for `O=C(CSc1nc2ccccc2nc1Cc1ccccc1)Nc1ccccc1C(F)(F)F` is inactive: -15.1%; for `CCOc1ccc(CNC(=O)c2cnc3sc(N(CC)CC)nn3c2=O)cc1` it is inactive: -3.48%; for `O=C(NCCS(=O)(=O)N1CCN(c2ccccc2F)CC1)C1CC(=O)N(c2ccccc2)C1` (stereo not given) it is inactive: -14.6%.
The result for `Nc1nc(F)nc2c1ncn2[C@@H]1O[C@H](CO)[C@@H](O)[C@@H]1O` reads inactive: -0.85%; that for `O=C(Nc1ccc(C(=O)OCc2cc(=O)n3nc(C4CC4)sc3n2)cc1)c1cccc(Cl)c1`, inactive: -3.31%.
With `CCc1ccccc1NC(=O)C(CC)Oc1ccccc1-c1nnc(-c2ccccc2)o1` (stereo not given), the “activity change, negative = inhibition” value was inactive: -5.57%.
The figure for `CCOC(=O)CCCN1C(=O)CCn2nc(-c3cn(C)c4ccccc34)cc21` is inactive: -14.7%; for `CCCCN(Cc1ccccc1)S(=O)(=O)c1cc(Br)cc2c1N(C(C)=O)CC2` it is inactive: -17.2%.
The figure for `COc1ccc(C(=O)Nc2c(C(=O)c3ccc(F)cc3)oc3ccccc23)cc1` is inactive: 10.2%.
`COc1ccc(-c2nc3c(c(SCC(=O)Nc4ccccc4OC)n2)Cc2cccc(C)c2O3)cc1`: the “activity change, negative = inhibition” value was inactive: -4.77%.
The figure for `CCOCCCNC(=O)c1cc(=O)[nH]c2ccc(S(=O)(=O)N3CCCC3)cc12` is inactive: -6.81%.
Consider `CCOc1ccc(CNC(=O)c2cccn2-c2nnc(N3CCCCC3)s2)cc1OC`, for which the “activity change, negative = inhibition” value was inactive: -23.8%.
The result for `CCCSc1ncc(Cl)c(C(=O)Nc2scc(-c3ccc(C)cc3)c2C(=O)OCC)n1` reads inactive: -14.7%; that for `O=C1NC(=O)[C@@]2(CCOc3ccc(F)cc32)N1`, inactive: 7.9%.
In the case of `CCC(C)NC(=O)Cc1ccc(NC(=O)N2CCCCc3ccccc32)cc1` (stereo not given), the “activity change, negative = inhibition” value was inactive: -21.6%.
The result for `Cc1cc(C)cc(OCc2cc(=O)n3c4c(sc3n2)CCCC4)c1` reads inactive: -8.27%; that for `N#Cc1ccccc1NC(=O)C(=O)NCC(c1ccc2c(c1)OCO2)N1CCOCC1` (stereo not given), inactive: 1.93%; that for `Cc1ccc(-n2c(=O)c3oc4ccccc4c3n(CC(=O)Nc3ccc(F)c(Cl)c3)c2=O)cc1C`, inactive: -2.28%.
The result for `O=C(CS(=O)(=O)c1cccc2nsnc12)Nc1ccc(F)cc1F` reads inactive: -4.88%; that for `CC(C)CCNC(=O)c1c2c(nc3ccccc13)C(=O)N(C1CCCCC1)C2`, inactive: -22.3%; that for `CCCCN(C)C(=O)c1ccc2c(c1)N(Cc1ccc(F)cc1)C(=O)c1ccccc1S2(=O)=O`, inactive: -25.9%.
The figure for `COc1ccccc1N1CCN(S(=O)(=O)CCNC(=O)COc2ccccc2F)CC1` is inactive: -12.6%; for `Cc1ccc(CNc2ncccc2-c2nc(-c3ccc(Cl)cc3)no2)cc1` it is inactive: 15.4%; for `O=C(CCCn1c(=O)c2sccc2n(Cc2ccc(Cl)cc2)c1=O)NCc1ccc2c(c1)OCO2` it is inactive: -21.5%.
Turning to `COc1ccc(Br)cc1CNC(=O)CCc1cn(Cc2ccc(C)cc2)c2ccccc12`, the “activity change, negative = inhibition” value is inactive: -28.7%.
For `Cc1scc(CN2CCN(c3ccc(F)cc3)CC2)c1C`, the “activity change, negative = inhibition” value was inactive: -5.02%.
The figure for `COC(=O)c1sccc1S(=O)(=O)N1CCN(c2ccc(Cl)cc2)CC1` is inactive: -20.3%; for `Cc1ccc(-c2nc(S(=O)(=O)c3ccccc3)c(SCC(=O)NC3CCCCC3)o2)cc1` it is inactive: -14.1%.
The result for `CC(C)c1ccc(NC(=O)CN2C(=O)CSc3ccc(S(=O)(=O)N4CCCC4)cc32)cc1` reads inactive: -17.6%.
The result for `CC(C)CC(NC(=O)C1CCCCC1)C(=O)Nc1cccc(C(F)(F)F)c1` (stereo not given) reads inactive: -12.1%.
`Cc1ccc(Cl)cc1NC(=O)c1cc(CN2CCCC2)on1`: the “activity change, negative = inhibition” value is inactive: 21.7%.
The figure for `CCc1ccc(NC(=O)c2ccc(NS(=O)(=O)c3c(C)noc3C)cc2)cc1` is inactive: -21.9%; for `CCc1cccc(C)c1NC(=O)c1cc(S(=O)(=O)N2CCCCCC2)cn1C` it is inactive: -24.7%; for `COc1ccc(-c2cc(C(F)(F)F)nc(SCCC(=O)Nc3cccc(OC)c3)n2)cc1` it is inactive: -20.7%.
The figure for `O=C(COc1ccc(F)cc1)Nc1ccc(S(=O)(=O)N(Cc2ccccc2)c2ccccc2)cc1` is inactive: 29.5%; for `CCc1ccc(CNC(=O)c2sc3nc[nH]c(=O)c3c2C)cc1` it is inactive: 3.12%.
The result for `CCc1ccc(Nc2nnc(-c3cc4cc(OC)ccc4oc3=O)s2)cc1` reads inactive: -9.46%; that for `COc1ccc(OC)c(CNc2ncnc3c2nc2n3CCCC2)c1`, inactive: -21.1%; that for `CCN(C(=O)Cc1c(C(=O)O)c(C)cn1C)c1cccc(Cl)c1`, inactive: -11%.
`CCc1c(C)nc(SCc2nc(-c3ccccc3C)no2)[nH]c1=O`: the “activity change, negative = inhibition” value is inactive: -27.8%.
The figure for `Cc1ccc(NC(=O)c2sc3nc(-c4ccncc4)ccc3c2N)cc1` is inactive: 6.62%; for `CCOc1ccc(S(=O)(=O)c2c(C(=O)c3ccc(C)c(C)c3)cnc3ccccc23)cc1` it is inactive: -17.1%; for `Cc1ccc(CNC(=O)CCc2nnc3n(C)c(=O)c4sccc4n23)cc1` it is inactive: -16.8%.
As to `COc1cc(NC(=O)C(NS(=O)(=O)c2ccc3c(c2)CCCC(=O)N3)C(C)C)cc(OC)c1` (stereo not given), the “activity change, negative = inhibition” value is inactive: -21.6%.
With `CC(=O)Nc1ccc(Nc2c(CCC(C)C)c(C)c(C#N)c3nc4ccccc4n23)cc1`, the activity change, negative = inhibition was inactive: 5.84% [at 11.5 µM].
The figure for `CC(=O)N[C@@H](CC(C)C)C(=O)O` is inactive: 9.42%.
The figure for `COC(=O)c1sccc1S(=O)(=O)N(CC(=O)Nc1ccc(C)c(F)c1)c1ccc(C)c(C)c1` is inactive: -10.9%.
The figure for `Cc1ccccc1Cn1c(=O)n(CCc2ccccc2)c(=O)c2sc3ccccc3c21` is inactive: 35.6%; for `CCc1ccc(C(=O)NC2=NC(c3cc(OC)ccc3OC)CC(=O)N2)cc1` (stereo not given) it is inactive: -20.8%.
Take `Cc1ccc(-c2nn(C)c(=O)c3ccccc23)cc1S(=O)(=O)NCCCN(C)C`: the “activity change, negative = inhibition” value was inactive: 14.4%.
The figure for `CC(=O)Nc1ccc(NC(=O)C(c2ccccc2)N2Cc3ccccc3C2=O)cc1` (stereo not given) is inactive: -14.4%.
The result for `COC(=O)c1ccc(-c2nc(-c3ccc(OC)c(OC)c3)no2)cc1` reads inactive: 16.5%; that for `O=C(Nc1ccc(-c2nc3cc(NC(=O)c4ccc(Cl)cc4)ccc3o2)cc1)c1ccc(Cl)cc1`, inactive: -0.0437%.
The result for `COc1ccc(-c2cc(C(F)(F)F)n3nc(C(=O)Nc4sc5c(c4C(=O)OC(C)C)CCC(C)C5)cc3n2)cc1` (stereo not given) reads inactive: 2.44%; that for `CCCN(CCC)C(=O)C1CCCN(S(=O)(=O)c2cc(Br)cc3c2N(C(=O)CC)CC3)C1` (stereo not given), inactive: -4.42%.
In the case of `CCc1ccc(-n2nc(CO)c(C(=O)NCc3cccnc3)n2)cc1`, the “activity change, negative = inhibition” value is inactive: -23.1%.
The figure for `Cc1cc(C)cc(NC(=O)CCc2c(C)nc3c(c2C)c(=O)n(C)c(=O)n3C)c1` is inactive: 3.67%; for `O=S(=O)(c1ccc(Br)cc1)c1nnn2c1nc(NCCc1ccccc1)c1sccc12` it is inactive: 1.88%.
For the molecule `Cc1nc2ccc(S(=O)(=O)NC(C(=O)N3CCN(c4cccc(Cl)c4)CC3)C(C)C)cc2s1` (stereo not given), the “activity change, negative = inhibition” value was inactive: -11.5%.
The figure for `Cc1nc(N2CCCC2)ncc1C(=O)NCc1ccc(F)cc1` is inactive: -19.8%.
The result for `Cc1cn2c(=O)c(S(=O)(=O)Nc3ccc(N4CCOCC4)cc3)c(C)nc2s1` reads inactive: 4.01%.
The result for `COCCNC(=O)c1cnn(-c2cccc(C)c2)c1-n1cccc1` reads inactive: 9.89%.
